{
  "source": "paper PMC4336329",
  "about": "(PLoS ONE, 2015)",
  "note": "Screen size: about 310,000 compounds; about 14,000 (4.5%) showed an effect of 50% or more. The effect is printed as a negative number. This is one part of the list. Where a SMILES comes first, the peptide text is derived from it. The star is where a group is joined. Cbz = O=C(OCc1ccccc1)*;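 also: peak tail current of the secondary pulse compared with the same well before compound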",
  "data": [
    {"target": "human ether-à-go-go-related gene (hERG) potassium channel (human, UniProt Q12809)", "sequence (Q12809 whole entry, looked up)": "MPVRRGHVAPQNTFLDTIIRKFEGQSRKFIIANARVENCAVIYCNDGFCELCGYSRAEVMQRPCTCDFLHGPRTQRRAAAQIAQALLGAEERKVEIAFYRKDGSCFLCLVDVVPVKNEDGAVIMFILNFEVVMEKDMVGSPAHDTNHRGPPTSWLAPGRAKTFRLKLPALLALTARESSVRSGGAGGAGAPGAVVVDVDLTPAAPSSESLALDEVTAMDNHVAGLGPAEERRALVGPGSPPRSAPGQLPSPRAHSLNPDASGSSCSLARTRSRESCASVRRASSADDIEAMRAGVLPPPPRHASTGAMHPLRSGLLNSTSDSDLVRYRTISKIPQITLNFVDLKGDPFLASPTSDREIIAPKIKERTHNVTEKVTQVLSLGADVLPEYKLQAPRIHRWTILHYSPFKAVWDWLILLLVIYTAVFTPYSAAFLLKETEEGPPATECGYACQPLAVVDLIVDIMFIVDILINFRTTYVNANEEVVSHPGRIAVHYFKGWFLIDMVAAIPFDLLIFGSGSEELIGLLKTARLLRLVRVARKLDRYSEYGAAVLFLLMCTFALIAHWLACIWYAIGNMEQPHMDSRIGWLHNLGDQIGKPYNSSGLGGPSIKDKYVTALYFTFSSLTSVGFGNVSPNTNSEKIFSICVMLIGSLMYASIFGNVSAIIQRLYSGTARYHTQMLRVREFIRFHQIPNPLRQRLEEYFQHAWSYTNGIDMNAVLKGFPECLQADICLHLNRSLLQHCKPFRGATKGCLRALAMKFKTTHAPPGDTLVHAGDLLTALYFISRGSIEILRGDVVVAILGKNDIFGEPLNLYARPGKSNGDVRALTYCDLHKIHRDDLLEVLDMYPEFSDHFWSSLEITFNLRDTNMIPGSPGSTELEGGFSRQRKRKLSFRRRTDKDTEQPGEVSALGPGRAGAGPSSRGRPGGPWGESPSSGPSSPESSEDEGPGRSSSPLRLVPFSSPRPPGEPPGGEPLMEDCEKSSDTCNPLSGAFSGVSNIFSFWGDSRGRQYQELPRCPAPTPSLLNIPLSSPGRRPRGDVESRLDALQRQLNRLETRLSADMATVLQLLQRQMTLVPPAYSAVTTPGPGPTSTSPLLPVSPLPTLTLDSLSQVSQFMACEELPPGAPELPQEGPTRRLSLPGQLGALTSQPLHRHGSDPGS", "experiment": "primary screen, population patch clamp on CHO cells stably expressing hERG", "units": {"hERG current change (%, negative = inhibition) at 10uM": "%"}, "values": [
      {"smiles": "CCN(CC)C(=O)Oc1ccc2ccccc2c1Br", "hERG current change (%, negative = inhibition) at 10uM": -3.86},
      {"smiles": "Cn1cnc(S(=O)(=O)N2CCc3ccccc32)c1", "hERG current change (%, negative = inhibition) at 10uM": 11.1},
      {"smiles": "COC(=O)c1cc(Cn2nc(C(=O)O)c3ccccc3c2=O)oc1C", "hERG current change (%, negative = inhibition) at 10uM": 15.8},
      {"smiles": "CC(=O)Nc1ccc(Oc2nc(C(F)(F)F)nc3ccccc23)cc1", "hERG current change (%, negative = inhibition) at 10uM": 22.8},
      {"smiles": "Nn1c(SCC(=O)Nc2cc(S(=O)(=O)N3CCOCC3)ccc2Cl)nnc1-c1cccnc1", "hERG current change (%, negative = inhibition) at 10uM": 11.2},
      {"smiles": "Cc1ccc(NC(=S)N2CCN(C)CC2)c(C)c1", "hERG current change (%, negative = inhibition) at 10uM": 6.94},
      {"smiles": "CN=c1scc(-c2ccc(Br)cc2)n1C", "hERG current change (%, negative = inhibition) at 10uM": -31.7},
      {"smiles": "COCCCNC(=S)Nc1ccccc1[N+](=O)[O-]", "hERG current change (%, negative = inhibition) at 10uM": 18.8},
      {"smiles": "Cc1ccc(-n2c(SCC(=O)N3CCCc4ccccc43)nnc2-c2cccnc2)c(C)c1", "hERG current change (%, negative = inhibition) at 10uM": -0.0294},
      {"smiles": "CC(C)C(=O)Nc1ccc(Br)cc1Cl", "hERG current change (%, negative = inhibition) at 10uM": 1.21},
      {"smiles": "CSc1ccccc1C(=O)Nc1ccc2c(c1)CCC2", "hERG current change (%, negative = inhibition) at 10uM": -30.5},
      {"smiles": "CCOC(=O)c1cc(S(=O)(=O)NC2CCC(C)CC2)cn1C", "note": "(centres unmarked)", "hERG current change (%, negative = inhibition) at 10uM": -3.98},
      {"smiles": "COCCCN1C(=O)N(c2ccccc2)C(=O)C1CC(=O)Nc1ccccc1", "note": "(centres unmarked)", "hERG current change (%, negative = inhibition) at 10uM": 18.6},
      {"smiles": "S=C1SCN(Cc2cccnc2)CN1Cc1cccnc1", "hERG current change (%, negative = inhibition) at 10uM": -20.9},
      {"smiles": "COc1ccc(C(=O)N2CCC(C(=O)c3c(C)cc(C)cc3C)CC2)cc1", "hERG current change (%, negative = inhibition) at 10uM": -55.3},
      {"smiles": "CC1CN(C(=O)c2ccccc2)C(=Nc2cccc(S(=O)(=O)N(C)C)c2)S1", "note": "(centres unmarked)", "hERG current change (%, negative = inhibition) at 10uM": -23.1},
      {"smiles": "O=C(Cn1cnc2c(nnn2Cc2ccc(F)cc2)c1=O)Nc1ccccc1", "hERG current change (%, negative = inhibition) at 10uM": 25.6},
      {"smiles": "Cc1ccccc1NC(=O)OCc1cccnc1Oc1ccc(Cl)cc1", "hERG current change (%, negative = inhibition) at 10uM": 6.26},
      {"smiles": "Cc1[nH]n(C(N)=S)c(=O)c1N=Nc1ccc(S(=O)(=O)N2CCCC2)cc1", "hERG current change (%, negative = inhibition) at 10uM": -1.91},
      {"smiles": "Br.CC(C)(C)N1Cc2ccccc2C1=N", "hERG current change (%, negative = inhibition) at 10uM": -3.56},
      {"smiles": "O=C1CCC/C(=N\\NC(=O)COc2ccc(Cl)cc2)C1", "hERG current change (%, negative = inhibition) at 10uM": 15.7},
      {"smiles": "O=C(Cn1cc2c(n1)CCCC2)NCC1CCCO1", "note": "(centres unmarked)", "hERG current change (%, negative = inhibition) at 10uM": 7.74},
      {"smiles": "CCOC(=O)/C(C#N)=C/Nc1cc(OC)ccc1OC", "hERG current change (%, negative = inhibition) at 10uM": 11.2},
      {"smiles": "O=C(C[n+]1cc(-c2ccc(F)cc2)n2c1CCC2)OCc1ccccc1.[Br-]", "hERG current change (%, negative = inhibition) at 10uM": -11.9},
      {"smiles": "Nc1nnc(Cc2ccc(Cl)c(Cl)c2)s1", "hERG current change (%, negative = inhibition) at 10uM": -4.56},
      {"smiles": "CCn1cc(C(=O)NCc2ccc3c(c2)OCO3)c(=O)c2cc(S(=O)(=O)N(C)C)ccc21", "hERG current change (%, negative = inhibition) at 10uM": -6.75},
      {"smiles": "Cc1ccccc1NC(=O)C(=O)NCCCN1CCOCC1", "hERG current change (%, negative = inhibition) at 10uM": 17.7},
      {"smiles": "Cc1cc(C)cc(OCc2nnc(SCC(=O)NC3CC3)n2C)c1", "hERG current change (%, negative = inhibition) at 10uM": -4.84},
      {"smiles": "COc1ccc(C2CC(c3cccs3)=NN2C(=O)CSc2nnnn2C)cc1OC", "note": "(centres unmarked)", "hERG current change (%, negative = inhibition) at 10uM": -25.1},
      {"smiles": "O=C(O)Cc1ccc2ccc3ccccc3c2c1", "hERG current change (%, negative = inhibition) at 10uM": 12.7},
      {"smiles": "O=C(NCc1csc(-c2cccs2)n1)c1ccsc1", "hERG current change (%, negative = inhibition) at 10uM": -6.54},
      {"smiles": "COC(=O)C(C)NC(=O)C1CCCN1C(=O)CNC(=O)OCc1ccccc1", "note": "(stereo not drawn) (Cbz-Gly-Pro-Ala-OMe; configuration not given here)", "hERG current change (%, negative = inhibition) at 10uM": 21.2},
      {"smiles": "CN(CC(=O)Nc1ccccc1C(F)(F)F)CC(=O)N1CCCCCC1", "hERG current change (%, negative = inhibition) at 10uM": -4.79},
      {"smiles": "CC1CN(CCCCSc2ccc(Cl)cc2)CC(C)O1.O=C(O)C(=O)O", "note": "(centres unmarked)", "hERG current change (%, negative = inhibition) at 10uM": -31.6},
      {"smiles": "O=C(C#Cc1ccccc1)c1cccc([N+](=O)[O-])c1", "hERG current change (%, negative = inhibition) at 10uM": 19.4},
      {"smiles": "CCn1c(Cc2ccccc2)nnc1SCC(=O)Nc1ccc(N2CCOCC2)c(Cl)c1", "hERG current change (%, negative = inhibition) at 10uM": -5.94},
      {"smiles": "Nc1nnc(SC2CC(=O)N(c3ccccc3)C2=O)s1", "note": "(centres unmarked)", "hERG current change (%, negative = inhibition) at 10uM": 16.8},
      {"smiles": "Cc1ccnc(NC(=O)COc2ccc3oc4c(c3c2)CCCC4)c1", "hERG current change (%, negative = inhibition) at 10uM": 11.2},
      {"smiles": "CCc1nc2n[nH]c(N)c2c2c1CCCC2", "hERG current change (%, negative = inhibition) at 10uM": 1.37},
      {"smiles": "CCc1nnc(NC(=O)c2ccc(S(=O)(=O)N3CCCCC3C)cc2)s1", "note": "(centres unmarked)", "hERG current change (%, negative = inhibition) at 10uM": 14.4},
      {"smiles": "CCC(=O)Nc1sc2c(c1C#N)CC(C)(CC)OC2", "note": "(centres unmarked)", "hERG current change (%, negative = inhibition) at 10uM": -2.16},
      {"smiles": "CNC(=O)n1ccc(C(=O)N2CCCCC2)n1", "hERG current change (%, negative = inhibition) at 10uM": 11.1},
      {"smiles": "COc1ccccc1NC(=O)CSc1nc2ccccc2c(=O)n1CCNC(C)=O", "hERG current change (%, negative = inhibition) at 10uM": -62.2},
      {"smiles": "COc1ccc(C(=O)N2CC3(CC(c4cccc(NC(=O)CC(c5ccccc5)c5ccccc5)c4)=NO3)C[C@H]2C(N)=O)cc1", "note": "(some centres unmarked)", "hERG current change (%, negative = inhibition) at 10uM": 1.82}
    ]}
  ]
}
